The values that follow come from publication PMC4336329 (PLoS ONE, 2015).

Hit rate of the full screen: of about 310,000 compounds, about 14,000 (4.5%) showed an effect of 50% or more. The effect is printed as a negative number. The list shows a part of the results.
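Note: peak tail current of the secondary pulse compared with the same well before compound.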

Sequence of human ether-à-go-go-related gene (hERG) potassium channel (Q12809 whole entry, looked up): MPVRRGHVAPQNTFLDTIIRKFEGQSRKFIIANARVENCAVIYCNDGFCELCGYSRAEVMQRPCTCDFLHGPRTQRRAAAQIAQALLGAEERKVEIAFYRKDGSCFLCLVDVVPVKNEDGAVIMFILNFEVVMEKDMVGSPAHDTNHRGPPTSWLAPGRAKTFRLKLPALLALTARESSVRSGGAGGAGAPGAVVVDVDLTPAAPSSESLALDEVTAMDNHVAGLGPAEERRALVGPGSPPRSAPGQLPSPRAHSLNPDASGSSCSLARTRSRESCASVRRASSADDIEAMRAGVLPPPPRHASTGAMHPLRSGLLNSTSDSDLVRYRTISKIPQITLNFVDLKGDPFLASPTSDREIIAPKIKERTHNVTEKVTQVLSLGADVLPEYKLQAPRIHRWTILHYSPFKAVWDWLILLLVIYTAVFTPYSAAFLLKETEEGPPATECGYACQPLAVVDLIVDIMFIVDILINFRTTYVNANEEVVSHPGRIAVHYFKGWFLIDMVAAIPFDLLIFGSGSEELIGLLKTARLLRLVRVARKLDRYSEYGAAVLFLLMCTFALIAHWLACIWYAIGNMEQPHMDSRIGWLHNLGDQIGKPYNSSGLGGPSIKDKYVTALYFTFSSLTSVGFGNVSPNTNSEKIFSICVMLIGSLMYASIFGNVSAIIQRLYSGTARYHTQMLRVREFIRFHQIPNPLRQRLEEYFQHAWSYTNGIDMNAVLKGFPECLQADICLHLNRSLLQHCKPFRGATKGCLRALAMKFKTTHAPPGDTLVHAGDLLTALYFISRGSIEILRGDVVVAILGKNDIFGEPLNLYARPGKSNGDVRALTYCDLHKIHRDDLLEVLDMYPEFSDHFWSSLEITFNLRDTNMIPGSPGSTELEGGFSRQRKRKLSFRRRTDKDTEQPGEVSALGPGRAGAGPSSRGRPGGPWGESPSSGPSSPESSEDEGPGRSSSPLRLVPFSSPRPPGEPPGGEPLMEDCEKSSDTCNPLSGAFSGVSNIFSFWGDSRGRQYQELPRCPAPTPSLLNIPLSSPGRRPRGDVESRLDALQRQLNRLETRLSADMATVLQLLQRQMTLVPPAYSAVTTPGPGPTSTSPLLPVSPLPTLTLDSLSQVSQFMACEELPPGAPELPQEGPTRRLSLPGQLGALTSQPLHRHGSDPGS

The assay addresses human ether-à-go-go-related gene (hERG) potassium channel (human, UniProt Q12809). Kind of assay: primary screen, population patch clamp on CHO cells stably expressing hERG.
For the compound `CC1(c2ccc(Cl)cc2Cl)NC(=O)N(CC(=O)NC2CCCCC2)C1=O` (centres unmarked), the “hERG current change (%, negative = inhibition) at 10uM” value is -2.85%.

Turning to `Cc1[nH]c2ccc(C(=O)N3CCN(C)CC3)cc2c1C`, the “hERG current change (%, negative = inhibition) at 10uM” value stood at 30.8%.

For the compound `CCN(CC(=O)NC(=O)NC1CCCCC1)Cc1ccccc1`, the “hERG current change (%, negative = inhibition) at 10uM” value was -10.7%.

On to `CCCCNC(=O)CCn1c(=O)c2ccccc2n(Cc2ccc(F)cc2)c1=O`, for which the “hERG current change (%, negative = inhibition) at 10uM” value is -18.5%.

`O=C(Nc1ccc(Oc2cccnc2)cc1)C1CCN(Cc2cc(Cl)ccc2O)CC1`: the “hERG current change (%, negative = inhibition) at 10uM” value was -45.9%.

Regarding `Cc1ccc(C(=O)N(C)CC(=O)Nc2ccc(Cl)c(C(F)(F)F)c2)cc1S(=O)(=O)N1CCCCC1`, the “hERG current change (%, negative = inhibition) at 10uM” value came to 9.11%.

With `Cc1cc(NC(=O)CSc2nnc(C)n2-c2ccccc2C)no1`, the “hERG current change (%, negative = inhibition) at 10uM” value was 19.1%.

`Cc1nc(C(C)NC(=O)CCc2nnc(-c3ccsc3)o2)cs1` (centres unmarked): the “hERG current change (%, negative = inhibition) at 10uM” value amounted to 15.8%.

As to `Nc1ccc2c(c1)COC2=O`, the “hERG current change (%, negative = inhibition) at 10uM” value is on record as 4.55%.

Take `CC(=O)c1cccc(NC(=O)C2CC(=O)N(c3ccc4c(c3)OCCO4)C2)c1` (centres unmarked): the “hERG current change (%, negative = inhibition) at 10uM” value was determined as 4.07%.

As for `CCc1ccc(-c2nc(CS(=O)CC(=O)NC3CCCCCC3)c(C)o2)cc1` (centres unmarked), the “hERG current change (%, negative = inhibition) at 10uM” value is recorded as -7.44%.

Consider `FC(F)(F)c1ccc(-c2nnc(-c3ccccn3)c(-c3ccccn3)n2)nc1`, for which the “hERG current change (%, negative = inhibition) at 10uM” value is listed as 4.84%.

As to `Cc1ccc(S(=O)(=O)/C(=C\N(C)C)c2cnc(Cl)s2)cc1`, the “hERG current change (%, negative = inhibition) at 10uM” value is 5.09%.

For the compound `O=C1NC(=O)/C(=C\c2ccccc2OCc2cccc([N+](=O)[O-])c2)N1`, the “hERG current change (%, negative = inhibition) at 10uM” value is given as -5.66%.

With `O=C1ON=C(c2ccc(Cl)c([N+](=O)[O-])c2)/C1=C/c1cccc([N+](=O)[O-])c1O`, the “hERG current change (%, negative = inhibition) at 10uM” value is listed as 21.5%.

With `O=C(/C=C/c1ccco1)N(Cc1ccc(Cl)cc1)C1CCS(=O)(=O)C1` (centres unmarked), the “hERG current change (%, negative = inhibition) at 10uM” value is recorded as -45.1%.

Consider `Cc1ccc(S(=O)(=O)Nc2ccc(Cl)cc2C(=O)c2ccccc2)cc1`, for which the “hERG current change (%, negative = inhibition) at 10uM” value was 14.4%.

As to `CC(C)(Oc1ccc(Cl)cc1)C(=O)NC1=NN(c2ccccc2)C(=O)C1`, the “hERG current change (%, negative = inhibition) at 10uM” value is given as -7.72%.

Take `COc1ccccc1OCc1cc(C(=O)N2CCCC(OCc3cccnc3)C2)no1` (centres unmarked): the “hERG current change (%, negative = inhibition) at 10uM” value was -22%.

For the compound `COCCN(C(=O)COC(=O)/C=C/c1ccc(OC)c(OC)c1)c1c(N)n(Cc2ccccc2)c(=O)[nH]c1=O`, the “hERG current change (%, negative = inhibition) at 10uM” value is 6.14%.

In the case of `CCOC(=O)C1CCN(CC(O)COCc2ccc(Cl)cc2)CC1.Cl` (centres unmarked), the “hERG current change (%, negative = inhibition) at 10uM” value is on record as -79.2%.

For the compound `O=C(N/C(=C/c1ccc(F)cc1)C(=O)N1CCCCC1)c1ccco1`, the “hERG current change (%, negative = inhibition) at 10uM” value is on record as -18.7%.

Regarding `CC(C)(C)C(=O)Nc1ccc(S(=O)(=O)N2CCCC2)cc1`, the “hERG current change (%, negative = inhibition) at 10uM” value came to 4.25%.

For the compound `CC(C)OC(=O)/C(=C\c1cccc2ccccc12)NC(=O)c1ccccc1`, the “hERG current change (%, negative = inhibition) at 10uM” value is reported as -6.39%.

With `COc1ccc(/C=C(\NC(=O)c2ccccc2)C(=O)NCCN2CCOCC2)cc1`, the “hERG current change (%, negative = inhibition) at 10uM” value is listed as -34.3%.

Consider `Cc1ccc(-n2nnc3c(=O)n(CC(=O)NCc4ccco4)cnc32)cc1`, for which the “hERG current change (%, negative = inhibition) at 10uM” value is reported as -20.1%.

Take `COc1ccc(NC(=O)c2csc3c2CCCCC3)c(OC)c1`: the “hERG current change (%, negative = inhibition) at 10uM” value is given as -6.93%.

Consider `CC(=O)c1cccc(S(=O)(=O)N2CCC(C(=O)Nc3cccc(C(=O)NC4CC4)c3)CC2)c1`, for which the “hERG current change (%, negative = inhibition) at 10uM” value was -0.194%.

For `CN(C)c1ccc(NC(=O)Nc2ccc3c(c2)nnn3C)cc1`, the “hERG current change (%, negative = inhibition) at 10uM” value was 6.89%.

Regarding `CCCn1ncc(CN2CCN(Cc3ccc(C)o3)C(CCO)C2)c1C` (centres unmarked), the “hERG current change (%, negative = inhibition) at 10uM” value was -12.9%.

As to `CC1CCN(C(=O)COc2cccc3c2CCN(C)C3=O)CC1`, the “hERG current change (%, negative = inhibition) at 10uM” value is given as 7.93%.

For the compound `O=C(CCn1c(=O)oc2ccccc21)N1CCCCCC1`, the “hERG current change (%, negative = inhibition) at 10uM” value is listed as -3.32%.

In the case of `CN(CC(=O)Nc1cccc(F)c1)C(=O)CN1C(=O)C2CC=CCC2C1=O` (centres unmarked), the “hERG current change (%, negative = inhibition) at 10uM” value is reported as -23.5%.

Turning to `N#CCCn1nc(-c2ccc(Cl)cc2)cc1Nc1ccccc1NC(=O)C(F)(F)F`, the “hERG current change (%, negative = inhibition) at 10uM” value is given as -15.5%.

As to `Cc1ncc([N+](=O)[O-])n1Cc1ccc(Cl)cc1`, the “hERG current change (%, negative = inhibition) at 10uM” value was -12%.

Regarding `Cc1ccc(S(=O)(=O)N2CCCCC2)c(C)c1NS(C)(=O)=O`, the “hERG current change (%, negative = inhibition) at 10uM” value amounted to 16.7%.

Consider `COc1ccc(C(C)(C)C)cc1NC(=O)c1cccc(S(=O)(=O)N2CCN(C(C)=O)CC2)c1`, for which the “hERG current change (%, negative = inhibition) at 10uM” value was 11.5%.

`Cc1cc(C(=O)N/N=C2\CCCC(=O)C2)c2ccccc2n1`: the “hERG current change (%, negative = inhibition) at 10uM” value is reported as -7.35%.

With `CC(C)(C)NCC(O)CON=C1c2ccccc2-c2ccccc21` (centres unmarked), the “hERG current change (%, negative = inhibition) at 10uM” value is given as -28.5%.

As to `CC(=O)Nc1ccc(Nc2ccc([N+](=O)[O-])cn2)cc1`, the “hERG current change (%, negative = inhibition) at 10uM” value is listed as -14.2%.

As to `CC(=O)Nc1cccc(/C(C)=N/NC(=O)c2cc(-c3ccncc3)nc3ccccc23)c1`, the “hERG current change (%, negative = inhibition) at 10uM” value is recorded as -6.95%.

Consider `COc1cccc(OC)c1C(=O)Nc1ccc2c(c1)OCCO2`, for which the “hERG current change (%, negative = inhibition) at 10uM” value was 9.86%.

`COc1ccc(-n2c(SCC(=O)c3c(N)n(C)c(=O)n(C)c3=O)nc3ccccc32)cc1`: the “hERG current change (%, negative = inhibition) at 10uM” value turned out to be 19.2%.

In the case of `O=C1CSC(c2ccccn2)N1c1cccc(Cl)c1` (centres unmarked), the “hERG current change (%, negative = inhibition) at 10uM” value is reported as 8.61%.
